Measurements published in publication PMC9911399, “Two distinct binding modes provide the RNA-binding protein RbFox with extraordinary sequence specificity”.
Changes are numbered by the printed parent chain; changes in the protein carry UniProt numbers. The list shows a part of the results.

T1: RBFOX1 RRM RbFoxmut (Fox-RRM*) (Homo sapiens, UniProt Q9NWB1 109-208, R118D;E147R;N151S;E152T)
T1 sequence: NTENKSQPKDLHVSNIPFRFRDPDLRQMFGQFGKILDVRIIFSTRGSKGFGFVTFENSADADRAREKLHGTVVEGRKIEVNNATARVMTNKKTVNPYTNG

B1: CGCAUAG (DNA:RNA)
RNA: GGGAGACCGGAAUUCAGAUUGUCCCGCAUAGUUAAAUCCCGUCGUAGCCACCA
DNA 1: CAATCTGAATTCCGGTCTCCC
DNA 2: TGGTGGCTACGACGGGATT
B2: UAGUAUU (DNA:RNA)
RNA: GGGAGACCGGAAUUCAGAUUGUCCUAGUAUUUUAAAUCCCGUCGUAGCCACCA
DNA 1: CAATCTGAATTCCGGTCTCCC
DNA 2: TGGTGGCTACGACGGGATT
B3: GGGUCGG (DNA:RNA)
RNA: B1 RNA with C25G, C27G, A28U, U29C, A30G
DNA 1: CAATCTGAATTCCGGTCTCCC
DNA 2: TGGTGGCTACGACGGGATT
B4: AAUUAGU (DNA:RNA)
RNA: B2 RNA with U25A, G27U, U30G
DNA 1: CAATCTGAATTCCGGTCTCCC
DNA 2: TGGTGGCTACGACGGGATT
B5: UGAGCGG (DNA:RNA)
RNA: B1 RNA with C25U, C27A, A28G, U29C, A30G
DNA 1: CAATCTGAATTCCGGTCTCCC
DNA 2: TGGTGGCTACGACGGGATT
B6: UAAAGCU (DNA:RNA)
RNA: B2 RNA with G27A, U28A, A29G, U30C
DNA 1: CAATCTGAATTCCGGTCTCCC
DNA 2: TGGTGGCTACGACGGGATT
B7: UGUUGGA (DNA:RNA)
RNA: B2 RNA with A26G, G27U, A29G, U30G, U31A
DNA 1: CAATCTGAATTCCGGTCTCCC
DNA 2: TGGTGGCTACGACGGGATT
B8: UAUACGU (DNA:RNA)
RNA: B2 RNA with G27U, U28A, A29C, U30G
DNA 1: CAATCTGAATTCCGGTCTCCC
DNA 2: TGGTGGCTACGACGGGATT
B9: AUCAACA (DNA:RNA)
RNA: B1 RNA with C25A, G26U, U29A, A30C, G31A
DNA 1: CAATCTGAATTCCGGTCTCCC
DNA 2: TGGTGGCTACGACGGGATT
B10: AUACGCA (DNA:RNA)
RNA: GGGAGACCGGAAUUCAGAUUGUCCAUACGCAUUAAAUCCCGUCGUAGCCACCA
DNA 1: CAATCTGAATTCCGGTCTCCC
DNA 2: TGGTGGCTACGACGGGATT
B11: ACCAGUG (DNA:RNA)
RNA: B1 RNA with C25A, G26C, U29G, A30U
DNA 1: CAATCTGAATTCCGGTCTCCC
DNA 2: TGGTGGCTACGACGGGATT
B12: AGUAGGC (DNA:RNA)
RNA: B10 RNA with U26G, A27U, C28A, C30G, A31C
DNA 1: CAATCTGAATTCCGGTCTCCC
DNA 2: TGGTGGCTACGACGGGATT
B13: CUUAUUA (DNA:RNA)
RNA: B1 RNA with G26U, C27U, A30U, G31A
DNA 1: CAATCTGAATTCCGGTCTCCC
DNA 2: TGGTGGCTACGACGGGATT
B14: CUAUCGU (DNA:RNA)
RNA: B10 RNA with A25C, C28U, G29C, C30G, A31U
DNA 1: CAATCTGAATTCCGGTCTCCC
DNA 2: TGGTGGCTACGACGGGATT
B15: GUGUCAA (DNA:RNA)
RNA: B10 RNA with A25G, A27G, C28U, G29C, C30A
DNA 1: CAATCTGAATTCCGGTCTCCC
DNA 2: TGGTGGCTACGACGGGATT
B16: GGCACCA (DNA:RNA)
RNA: B1 RNA with C25G, U29C, A30C, G31A
DNA 1: CAATCTGAATTCCGGTCTCCC
DNA 2: TGGTGGCTACGACGGGATT
B17: AGUGUCC (DNA:RNA)
RNA: B10 RNA with U26G, A27U, C28G, G29U, A31C
DNA 1: CAATCTGAATTCCGGTCTCCC
DNA 2: TGGTGGCTACGACGGGATT
B18: ACUGUCU (DNA:RNA)
RNA: B10 RNA with U26C, A27U, C28G, G29U, A31U
DNA 1: CAATCTGAATTCCGGTCTCCC
DNA 2: TGGTGGCTACGACGGGATT
B19: CCUGGCU (DNA:RNA)
RNA: B10 RNA with A25C, U26C, A27U, C28G, A31U
DNA 1: CAATCTGAATTCCGGTCTCCC
DNA 2: TGGTGGCTACGACGGGATT
B20: GAAUGGG (DNA:RNA)
RNA: B10 RNA with A25G, U26A, C28U, C30G, A31G
DNA 1: CAATCTGAATTCCGGTCTCCC
DNA 2: TGGTGGCTACGACGGGATT

The binders below were run against T1, RBFOX1 RRM RbFoxmut (Fox-RRM*) (assay: EMSA; HiTS-Eq, 1 nM pool, 10 min; buffer printed only for the single-RNA assays: 10 mM Tris pH 7.5, 150 mM NaCl, 3.4 mM EDTA, 0.001% NP-40, 30 C). Conditions: tags: His6 N-terminal (pET28a); label: 5' 32P.
Summary of the method: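 Purified wild-type or mutant RbFox RRM at increasing concentrations was equilibrated with 1 nM of 5′-radiolabelled RNA carrying 7 randomized nucleotides for 10 min in 50 µL. Unbound RNA was separated by 8% native PAGE and sequenced. Relative association constants came from read-count changes of each RNA species compared with the control reaction, normalised to the cognate motif.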

**Q.** Which binding signal does the source give for B1 here?
**A.** 0.136 KA relative to UGCAUGU

**Q.** Which binding signal does the source give for B2 here?
**A.** 0.12 KA relative to UGCAUGU

**Q.** For B3, which binding signal is on record?
**A.** 0.137 KA relative to UGCAUGU

**Q.** B4 was tested. Which binding signal did it give?
**A.** 0.113 KA relative to UGCAUGU

**Q.** With B5 as the binder, how does the binding signal read?
**A.** 0.0658 KA relative to UGCAUGU

**Q.** B6 was tested. Which binding signal did it give?
**A.** 0.0622 KA relative to UGCAUGU

**Q.** With B7 as the binder, how does the binding signal read?
**A.** 0.0795 KA relative to UGCAUGU

**Q.** B8 was tested. Which binding signal did it give?
**A.** 0.0788 KA relative to UGCAUGU

**Q.** With B9 as the binder, how does the binding signal read?
**A.** 0.0956 KA relative to UGCAUGU

**Q.** With B10 as the binder, how does the binding signal read?
**A.** 0.153 KA relative to UGCAUGU

**Q.** With B11 as the binder, how does the binding signal read?
**A.** 0.0922 KA relative to UGCAUGU

**Q.** How did the binding signal turn out when B12 was run?
**A.** 0.097 KA relative to UGCAUGU

**Q.** With B13 as the binder, how does the binding signal read?
**A.** 0.144 KA relative to UGCAUGU

**Q.** How did the binding signal turn out when B14 was run?
**A.** 0.11 KA relative to UGCAUGU

**Q.** With B15 as the binder, how does the binding signal read?
**A.** 0.114 KA relative to UGCAUGU

**Q.** With B16 as the binder, how does the binding signal read?
**A.** 0.0788 KA relative to UGCAUGU

**Q.** With B17 as the binder, how does the binding signal read?
**A.** 0.0744 KA relative to UGCAUGU

**Q.** Which binding signal does the source give for B18 here?
**A.** 0.0844 KA relative to UGCAUGU

**Q.** With B19 as the binder, how does the binding signal read?
**A.** 0.073 KA relative to UGCAUGU

**Q.** B20 was tested. Which binding signal did it give?
**A.** 0.21 KA relative to UGCAUGU
